In the supplement of paper PMC9446081:
About 220 (0.56%) of roughly 39,000 compounds showed activity. The list shows a part of the results.

System: Escherichia coli K-12 BW25113
Assay: relative growth (OD600 normalised to plate interquartile mean) (fraction); higher = less growth inhibition, active = 0.2 or less
Settings: 50 µM; LB; incubation time: overnight (16-24 h)
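Also: static incubation at 37 °C against the wild-type strain, values averaged over two biological replicates.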

Structure (SMILES)	relative growth
COc1ccc(S(=O)(=O)N(C)C[C@@H]2Oc3c(NS(=O)(=O)c4c(C)noc4C)cccc3C(=O)N([C@H](C)CO)C[C@@H]2C)cc1	inactive: 0.999
C[C@@H]1CN([C@H](C)CO)C(=O)Cc2cc(NS(=O)(=O)c3ccccc3)ccc2O[C@@H]1CN(C)Cc1ccc2c(c1)OCO2	inactive: 0.989
COc1cccc(CN(C)C[C@H]2OCc3ccccc3-c3c(n(C)c4ccccc34)C(=O)N([C@@H](C)CO)C[C@H]2C)c1	inactive: 0.982
C[C@@H]1CCCCO[C@@H](CN(C)C(=O)CCCN(C)C)[C@H](C)CN([C@@H](C)CO)C(=O)c2cc(NS(C)(=O)=O)ccc2O1	inactive: 0.989
O=C(C[C@H]1C[C@@H]2c3cc(NC(=O)C4CCOCC4)ccc3O[C@@H]2[C@@H](CO)O1)NCc1cc(F)ccc1F	inactive: 0.984
Cc1noc(C)c1S(=O)(=O)N(C)C[C@H]1OCCCC[C@H](C)Oc2ccc(NC(=O)Nc3ccccc3)cc2C(=O)N([C@H](C)CO)C[C@@H]1C	inactive: 0.991
CNC(=O)C[C@@H]1CC[C@@H]2[C@H](COC[C@@H](O)CN2C(=O)c2ccc3c(c2)OCO3)O1	inactive: 0.995
Cc1ccc(S(=O)(=O)N(C)C[C@H]2Oc3ccc(NS(=O)(=O)c4cccs4)cc3C(=O)N([C@H](C)CO)C[C@@H]2C)cc1	inactive: 1.03
CO[C@@H]1CN(C)C(=O)c2ccc(NC(=O)C3CC3)cc2OC[C@@H](C)N(C(=O)C2CCOCC2)C[C@H]1C	inactive: 1.03
C[C@@H]1CCCCO[C@@H](CN(C)Cc2ccc(C(=O)O)cc2)[C@H](C)CN([C@H](C)CO)C(=O)c2cc(NC(=O)Nc3cccc4ccccc34)ccc2O1	inactive: 1
C[C@@H]1CCCCO[C@@H](CN(C)C(=O)Nc2ccc3c(c2)OCO3)[C@H](C)CN([C@H](C)CO)C(=O)c2cc(NC(=O)Nc3cccc4ccccc34)ccc2O1	inactive: 1.02
OCc1cccc(Cn2cncn2)c1	inactive: 1.02
C[C@@H]1CN([C@@H](C)CO)C(=O)c2cccc(NS(=O)(=O)c3ccc(F)cc3)c2O[C@@H]1CN(C)Cc1ccc(Oc2ccccc2)cc1	inactive: 0.991
Cc1cc(CN)cc(C)c1NC(=O)c1ccc(-c2cc(Cl)ccc2Cl)o1	inactive: 0.978
C[C@H]1CN([C@@H](C)CO)C(=O)Cc2cc(NS(=O)(=O)c3ccc(F)cc3)ccc2O[C@H]1CN(C)Cc1ccc(Oc2ccccc2)cc1	inactive: 1.01
O=C1O[C@@H](c2ccccc2)[C@@H](c2ccccc2)N2[C@@H](c3ccc(O)cc3)[C@]3(C(=O)Nc4ccc(C#CCCO)cc43)[C@@H](C(=O)N3CCCCCCC3)[C@H]12	inactive: 1.02
CN(C)CC(=O)N[C@@H]1CC[C@H](CCNC(=O)C2CCC2)O[C@@H]1CO	inactive: 1
COc1ccc(CN(C)C[C@@H]2Oc3ccc(NS(=O)(=O)c4cn(C)cn4)cc3C(=O)N([C@H](C)CO)C[C@@H]2C)cc1	inactive: 0.981
C[C@H]1CN([C@@H](C)CO)C(=O)c2c(c3ccccc3n2C)-c2ccccc2CO[C@H]1CN(C)C(=O)Nc1ccccc1	inactive: 0.996
C[C@H](CO)N1C[C@H](C)[C@H](CN(C)C(=O)Nc2ccc3c(c2)OCO3)OCCCC[C@H](C)Oc2ccc(NS(=O)(=O)c3ccc(F)cc3)cc2C1=O	inactive: 1.04
c1ccc2c(c1)[nH]c1ncccc12	inactive: 0.861

Structure (SMILES)	relative growth
Cc1noc(C)c1NC(=O)Nc1cccc2c1O[C@H](CN(C)Cc1ccc(-c3ccccc3)cc1)[C@@H](C)CN([C@@H](C)CO)C2=O	inactive: 1.01
C/C(C[P+](c1ccccc1)(c1ccccc1)c1ccccc1)=N\NC(=O)CCCCCC(=O)Nc1ccccc1O	inactive: 0.996
COc1ccc(NC(=O)Nc2ccc3c(c2)CC(=O)N([C@H](C)CO)C[C@H](C)[C@H](CN(C)S(=O)(=O)c2c(C)noc2C)O3)cc1	inactive: 0.989
COCC#Cc1cnc2c(c1)C(=O)N([C@@H](C)CO)C[C@H](C)[C@@H](CN(C)C(=O)CN1CCOCC1)O2	inactive: 1
Cc1cc(-c2ccccc2)nnc1NCCN1CCOCC1.Cl.Cl	inactive: 0.942
CC/N=c1\nc(NCC)[nH]c(=S)[nH]1	inactive: 0.983
Cc1cc(O)cc2c1O[C@](C)(CCC[C@H](C)CCC[C@H](C)CCCC(C)C)CC2	inactive: 1.02
C[C@@H]1CN([C@@H](C)CO)C(=O)c2cc(-c3ccc(C(=O)N(C)C)cc3)cnc2O[C@@H]1CN(C)C(=O)CN(C)C	inactive: 1.01
C[C@@H]1CN([C@@H](C)CO)C(=O)c2cc(NS(=O)(=O)c3ccccc3)ccc2O[C@H]1CN(C)Cc1ccc(-c2ccccc2)cc1	inactive: 0.973
C[C@@H]1CN([C@H](C)CO)C(=O)c2cc(C#Cc3cccc(F)c3)cnc2O[C@H]1CN(C)Cc1ccccn1	inactive: 1.01
C[C@H]1CN([C@@H](C)CO)C(=O)c2cc(NC(=O)Nc3ccc(C(F)(F)F)cc3)ccc2O[C@@H]1CN(C)Cc1ccccc1	inactive: 0.978
C[C@@H]1CCCCO[C@@H](CN(C)C(=O)Nc2cccc3ccccc23)[C@@H](C)CN([C@H](C)CO)C(=O)c2cc(NC(=O)c3ccncc3)ccc2O1	inactive: 1.01
CCCCCCCCCCCCCCCCCC(=O)OC[C@@H](COP(=O)(O)OCC[N+](C)(C)C)OC(=O)CCCCCCCCCCCCCCCCC	inactive: 1.05
Cc1ccc(CNC(=S)NCCO)cc1	inactive: 1.02
Cc1noc(C)c1NC(=O)N(C)C[C@@H]1Oc2ccc(NC(=O)C3CC3)cc2CC(=O)N([C@H](C)CO)C[C@@H]1C	inactive: 0.971
CC(C)CC#Cc1ccc2c(c1)O[C@H](CN(C)C(=O)Cc1ccccn1)[C@@H](C)CN([C@H](C)CO)S2(=O)=O	inactive: 1
C[C@H](CO)N1C[C@H](C)[C@@H](CN(C)S(=O)(=O)c2ccccc2)Oc2ccc(NS(=O)(=O)c3cn(C)cn3)cc2C1=O	inactive: 1.01
C[C@@H]1CN([C@H](C)CO)C(=O)c2cccc(NC(=O)Nc3ccc4c(c3)OCO4)c2O[C@H]1CN(C)C(=O)Nc1cccc2ccccc12	inactive: 1.03
C[C@H](CO)N1C[C@H](C)[C@@H](CN(C)S(=O)(=O)c2cccc(F)c2)Oc2ncc(Br)cc2C1=O	inactive: 1.03
COCC(=O)OCn1nnc2ccccc2c1=O	inactive: 0.983
C[C@@H]1CN([C@@H](C)CO)C(=O)c2cc(NS(=O)(=O)c3cn(C)cn3)ccc2O[C@H]1CN(C)Cc1ccccc1	inactive: 0.985

Structure (SMILES)	relative growth
CCCNC(=O)Nc1ccc2c(c1)C(=O)N(C)C[C@H](OC)[C@H](C)CN(Cc1ccc(-c3ccccn3)cc1)[C@H](C)CO2	inactive: 1.06
Cc1ccc(S(=O)(=O)Nc2ccc3c(c2)CC(=O)N([C@@H](C)CO)C[C@@H](C)[C@@H](CN(C)S(=O)(=O)c2ccccc2)O3)cc1	inactive: 0.987
NC(=O)c1ccc([N+](=O)[O-])cc1Cl	inactive: 1.11
Cc1noc(C)c1NC(=O)N(C)C[C@@H]1Oc2ccc(NS(=O)(=O)c3ccccc3)cc2C(=O)N([C@@H](C)CO)C[C@H]1C	inactive: 0.987
O=C(O[C@H]1[C@H](O)[C@@H](CO)O[C@H](c2c(O)cc(O)c(C(=O)c3ccc(O)cc3)c2O)[C@H]1OC(=O)c1cc(O)c(O)c(O)c1)c1cc(O)c(O)c(O)c1	inactive: 0.722
Cc1noc(C)c1S(=O)(=O)N(C)C[C@H]1Oc2ccc(NS(C)(=O)=O)cc2CC(=O)N([C@H](C)CO)C[C@H]1C	inactive: 0.967
C[C@H](CO)N1C[C@H](C)[C@@H](CN(C)Cc2ccc3c(c2)OCO3)Oc2ccc(NS(C)(=O)=O)cc2CC1=O	inactive: 0.981
Nc1ccc(C(=O)[O-])c(O)c1.[Na+]	inactive: 1.1
COc1nc(C)nc(Cl)c1NC1=NCCN1	inactive: 1.03
C[C@@H]1CN([C@@H](C)CO)C(=O)c2cc(N(C)C)ccc2O[C@@H]1CN(C)S(C)(=O)=O	inactive: 1.02
C[C@@H]1CN([C@H](C)CO)C(=O)c2cccc(NS(=O)(=O)c3ccc(F)cc3)c2O[C@H]1CN(C)Cc1ccc(-c2ccccc2)cc1	inactive: 0.998
COc1ccc(NC(=O)N2C[C@H](O)COC[C@@H]3O[C@@H](CC(=O)NCc4ccccc4OC)CC[C@H]32)cc1	inactive: 0.982
O=C(C[C@H]1C[C@H]2c3cc(NC(=O)Nc4ccccc4)ccc3O[C@H]2[C@@H](CO)O1)NCCN1CCCCC1	inactive: 0.985
CCCN1C[C@H](C)[C@@H](O)[C@](C)(O)[C@@H](CC)OC(=O)[C@H](C)[C@@H](O[C@H]2C[C@@](C)(OC)[C@@H](O)[C@H](C)O2)[C@H](C)[C@@H](O[C@@H]2O[C@H](C)C[C@H](N(C)C)[C@H]2O)[C@](C)(O)C[C@H]1C	active: 0.116
CS(=O)(=O)Nc1ccc2c(c1)[C@@H]1C[C@@H](CC(=O)NCc3ccc(-c4ccccc4)cc3)O[C@@H](CO)[C@@H]1O2	inactive: 0.992
Cc1noc(C)c1S(=O)(=O)N(C)C[C@@H]1OCCCC[C@H](C)Oc2ccc(NS(=O)(=O)c3cn(C)cn3)cc2C(=O)N([C@@H](C)CO)C[C@H]1C	inactive: 1.02
CC1CCC(C(C)C)C(=O)C1 (configuration not stated)	inactive: 0.93
O=C(NO)c1ccc(C(=O)N/N=C/[C@H](O)[C@@H](O)[C@@H](O)[C@H](O)C(=O)O)cc1	inactive: 1.02
Cc1n[nH]c(NN2CCOCC2)nc1=O	inactive: 1.01
C[C@@H]1CN([C@@H](C)CO)C(=O)c2cc(NC(=O)Nc3cccc4ccccc34)ccc2O[C@H]1CN(C)CC1CCCCC1	inactive: 1.01
